Experimental findings from the supplement of paper PMC10369915 are described below.

The list shows a part of the results. Cut-off read from the data, not from the text of the source: active = 3.2 or more and inactive = the rest. Most of these values are background signal.
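Note: displayed peptides selected on beads carrying the immobilized SH2 domain, with library peptides lacking any tyrosine serving as negative controls.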

The first experiment concerns the target SHP2 C-SH2 domain E139D. Kind of experiment: enrichment score (SH2-bound / input frequency) (ratio); bacterial display of known human phosphotyrosine sites (pTyr-Var adds point mutants) read by sequencing; higher = stronger binding; tyrosines were phosphorylated by kinases first. Particulars: peptide library: pTyr-Var.
As to FCRIMYDIFPF [INTS13_Y67_YF], the enrichment score is inactive: 1.38.

Take RHFTGCRIELQ [INSR_Y818_Y818C]: the enrichment score is inactive: 1.78.

For the molecule EFNLMYDGTKE [IRF6_Y97], the enrichment score was inactive: 0.822.

For PLGPLYASSNT [INSR_Y992_P997T], the enrichment score is inactive: 1.14.

On to EYFDGYWEYSV [ITGA2B_Y265_G267E], for which the enrichment score is inactive: 1.1.

In the case of YCRITYDIFPF [INTS13_Y67_M66T], the enrichment score was inactive: 1.3.

Consider KKFVPYYDLFM [IPO5_Y530_E525K], for which the enrichment score is inactive: 2.48.

With EPFEVYRIVPE [IRF8_Y110_K108E_YF], the enrichment score was inactive: 0.904.

On to NYYDTYIKTCL [IQGAP2_Y1445], for which the enrichment score is inactive: 0.954.

As to NFFDTYIKTCL [IQGAP2_Y1445_YF], the enrichment score was inactive: 1.33.

As for EPFKVYRIVPE [IRF8_Y110_YF], the enrichment score was inactive: 0.776.

With RICRRYCQVLN [IQCF1_Y144_R141C], the enrichment score is inactive: 0.234.

For DPHKIYEFVNS [IRF3_Y107], the enrichment score was inactive: 1.1.

As for KGPGEYVNIEF [IRS1_Y896_S892G], the enrichment score is inactive: 1.3.

In the case of PARLEYFENEK [IRS1_Y46_YF], the enrichment score is inactive: 0.773.

For the molecule KLFIEYPTGSG [IRF2BPL_Y423], the enrichment score was inactive: 1.73.

For the molecule NFFDTCIKTCL [IQGAP2_Y1445_Y1445C_YF], the enrichment score was inactive: 2.32.

As to NYYDTCIKTCL [IQGAP2_Y1445_Y1445C], the enrichment score is inactive: 2.03.

For the molecule ARLEFYENEKK [IRS1_Y47_YF], the enrichment score is inactive: 1.39.

In a further experiment the target is SHP2 C-SH2 domain wild-type. Described as above. Particulars: peptide library: pTyr-Var.
Regarding FCRIMYDIFPF [INTS13_Y67_YF], the enrichment score is inactive: 1.33.

Regarding RHFTGCRIELQ [INSR_Y818_Y818C], the enrichment score is inactive: 1.67.

On to EFNLMYDGTKE [IRF6_Y97], for which the enrichment score is inactive: 0.748.

As to PLGPLYASSNT [INSR_Y992_P997T], the enrichment score is inactive: 1.01.

Regarding EYFDGYWEYSV [ITGA2B_Y265_G267E], the enrichment score was inactive: 1.7.

On to YCRITYDIFPF [INTS13_Y67_M66T], for which the enrichment score is inactive: 1.52.

Consider KKFVPYYDLFM [IPO5_Y530_E525K], for which the enrichment score is inactive: 2.2.

EPFEVYRIVPE [IRF8_Y110_K108E_YF]: the enrichment score was inactive: 0.622.

Take NYYDTYIKTCL [IQGAP2_Y1445]: the enrichment score is inactive: 1.17.

For the molecule NFFDTYIKTCL [IQGAP2_Y1445_YF], the enrichment score is inactive: 1.61.

Turning to EPFKVYRIVPE [IRF8_Y110_YF], the enrichment score is inactive: 0.708.

In the case of RICRRYCQVLN [IQCF1_Y144_R141C], the enrichment score is inactive: 0.236.

In the case of DPHKIYEFVNS [IRF3_Y107], the enrichment score is inactive: 0.778.

Regarding KGPGEYVNIEF [IRS1_Y896_S892G], the enrichment score was inactive: 1.6.

PARLEYFENEK [IRS1_Y46_YF]: the enrichment score was inactive: 0.667.

Take KLFIEYPTGSG [IRF2BPL_Y423]: the enrichment score was inactive: 1.54.

With NFFDTCIKTCL [IQGAP2_Y1445_Y1445C_YF], the enrichment score was inactive: 2.29.

Turning to NYYDTCIKTCL [IQGAP2_Y1445_Y1445C], the enrichment score is inactive: 1.88.

As for ARLEFYENEKK [IRS1_Y47_YF], the enrichment score is inactive: 1.19.

Another experiment concerns the target SHP2 N-SH2 domain L43F. The experiment is described as above. Particulars: peptide library: pTyr-Var.
Take FCRIMYDIFPF [INTS13_Y67_YF]: the enrichment score is inactive: 1.15.

In the case of RHFTGCRIELQ [INSR_Y818_Y818C], the enrichment score was inactive: 1.3.

Consider EFNLMYDGTKE [IRF6_Y97], for which the enrichment score is inactive: 0.925.

As for PLGPLYASSNT [INSR_Y992_P997T], the enrichment score was inactive: 0.904.

For EYFDGYWEYSV [ITGA2B_Y265_G267E], the enrichment score is inactive: 1.42.

Turning to YCRITYDIFPF [INTS13_Y67_M66T], the enrichment score is inactive: 1.25.

In the case of KKFVPYYDLFM [IPO5_Y530_E525K], the enrichment score is inactive: 2.17.

In the case of EPFEVYRIVPE [IRF8_Y110_K108E_YF], the enrichment score is inactive: 0.792.

Turning to NYYDTYIKTCL [IQGAP2_Y1445], the enrichment score is inactive: 0.954.

With NFFDTYIKTCL [IQGAP2_Y1445_YF], the enrichment score was inactive: 1.39.

For the molecule EPFKVYRIVPE [IRF8_Y110_YF], the enrichment score was inactive: 0.877.

As to RICRRYCQVLN [IQCF1_Y144_R141C], the enrichment score was inactive: 0.189.

Take DPHKIYEFVNS [IRF3_Y107]: the enrichment score was inactive: 0.787.

Take KGPGEYVNIEF [IRS1_Y896_S892G]: the enrichment score was active: 3.65.

For PARLEYFENEK [IRS1_Y46_YF], the enrichment score was inactive: 0.872.

As to KLFIEYPTGSG [IRF2BPL_Y423], the enrichment score was inactive: 1.33.

In the case of NFFDTCIKTCL [IQGAP2_Y1445_Y1445C_YF], the enrichment score was inactive: 2.46.

For the molecule NYYDTCIKTCL [IQGAP2_Y1445_Y1445C], the enrichment score is inactive: 1.59.

For ARLEFYENEKK [IRS1_Y47_YF], the enrichment score is inactive: 1.34.

For the next experiment, the target named is SHP2 N-SH2 domain T42A. Described as above. Particulars: peptide library: pTyr-Var.
Regarding FCRIMYDIFPF [INTS13_Y67_YF], the enrichment score is inactive: 1.11.

Turning to RHFTGCRIELQ [INSR_Y818_Y818C], the enrichment score was inactive: 1.25.

Take EFNLMYDGTKE [IRF6_Y97]: the enrichment score was inactive: 0.751.

As for PLGPLYASSNT [INSR_Y992_P997T], the enrichment score is inactive: 0.672.

In the case of EYFDGYWEYSV [ITGA2B_Y265_G267E], the enrichment score was inactive: 1.21.

As for YCRITYDIFPF [INTS13_Y67_M66T], the enrichment score is inactive: 1.63.

Regarding KKFVPYYDLFM [IPO5_Y530_E525K], the enrichment score was inactive: 2.37.

In the case of EPFEVYRIVPE [IRF8_Y110_K108E_YF], the enrichment score was inactive: 0.636.

Take NYYDTYIKTCL [IQGAP2_Y1445]: the enrichment score was inactive: 0.722.

Take NFFDTYIKTCL [IQGAP2_Y1445_YF]: the enrichment score is inactive: 1.35.

As to EPFKVYRIVPE [IRF8_Y110_YF], the enrichment score is inactive: 0.735.

Regarding RICRRYCQVLN [IQCF1_Y144_R141C], the enrichment score is inactive: 0.188.

Regarding DPHKIYEFVNS [IRF3_Y107], the enrichment score is inactive: 0.673.

As to KGPGEYVNIEF [IRS1_Y896_S892G], the enrichment score is active: 5.32.

As for PARLEYFENEK [IRS1_Y46_YF], the enrichment score was inactive: 0.913.

With KLFIEYPTGSG [IRF2BPL_Y423], the enrichment score was inactive: 1.22.

NFFDTCIKTCL [IQGAP2_Y1445_Y1445C_YF]: the enrichment score is inactive: 2.16.

Turning to NYYDTCIKTCL [IQGAP2_Y1445_Y1445C], the enrichment score is inactive: 1.74.

On to ARLEFYENEKK [IRS1_Y47_YF], for which the enrichment score was inactive: 1.32.

In another experiment the target is SHP2 N-SH2 domain T52S. The description is as above. Particulars: peptide library: pTyr-Var.
As to FCRIMYDIFPF [INTS13_Y67_YF], the enrichment score is inactive: 1.42.

Turning to RHFTGCRIELQ [INSR_Y818_Y818C], the enrichment score was inactive: 1.6.

Take EFNLMYDGTKE [IRF6_Y97]: the enrichment score is inactive: 0.82.

For the molecule PLGPLYASSNT [INSR_Y992_P997T], the enrichment score was inactive: 0.728.

For the molecule EYFDGYWEYSV [ITGA2B_Y265_G267E], the enrichment score is inactive: 0.901.

Turning to YCRITYDIFPF [INTS13_Y67_M66T], the enrichment score was inactive: 0.995.

In the case of KKFVPYYDLFM [IPO5_Y530_E525K], the enrichment score was inactive: 2.36.

Turning to EPFEVYRIVPE [IRF8_Y110_K108E_YF], the enrichment score was inactive: 0.874.

For the molecule NYYDTYIKTCL [IQGAP2_Y1445], the enrichment score is inactive: 0.853.

As for NFFDTYIKTCL [IQGAP2_Y1445_YF], the enrichment score was inactive: 1.24.

Consider EPFKVYRIVPE [IRF8_Y110_YF], for which the enrichment score was inactive: 0.858.

For the molecule RICRRYCQVLN [IQCF1_Y144_R141C], the enrichment score was inactive: 0.233.

Regarding DPHKIYEFVNS [IRF3_Y107], the enrichment score was inactive: 0.788.

In the case of KGPGEYVNIEF [IRS1_Y896_S892G], the enrichment score was active: 4.3.

With PARLEYFENEK [IRS1_Y46_YF], the enrichment score was inactive: 0.972.

Consider KLFIEYPTGSG [IRF2BPL_Y423], for which the enrichment score was inactive: 1.69.

Take NFFDTCIKTCL [IQGAP2_Y1445_Y1445C_YF]: the enrichment score was inactive: 2.63.

Take NYYDTCIKTCL [IQGAP2_Y1445_Y1445C]: the enrichment score was inactive: 1.98.

On to ARLEFYENEKK [IRS1_Y47_YF], for which the enrichment score was inactive: 1.1.

The target in a further experiment is SHP2 N-SH2 domain wild-type. The description is as above. Particulars: peptide library: pTyr-Var.
As to FCRIMYDIFPF [INTS13_Y67_YF], the enrichment score is inactive: 1.66.

On to RHFTGCRIELQ [INSR_Y818_Y818C], for which the enrichment score is inactive: 1.53.

For the molecule EFNLMYDGTKE [IRF6_Y97], the enrichment score was inactive: 0.845.

As to PLGPLYASSNT [INSR_Y992_P997T], the enrichment score is inactive: 0.807.

Turning to EYFDGYWEYSV [ITGA2B_Y265_G267E], the enrichment score was inactive: 1.35.

Take YCRITYDIFPF [INTS13_Y67_M66T]: the enrichment score is inactive: 1.6.

Consider KKFVPYYDLFM [IPO5_Y530_E525K], for which the enrichment score is inactive: 2.15.

In the case of EPFEVYRIVPE [IRF8_Y110_K108E_YF], the enrichment score was inactive: 0.642.

As to NYYDTYIKTCL [IQGAP2_Y1445], the enrichment score was inactive: 1.41.

Regarding NFFDTYIKTCL [IQGAP2_Y1445_YF], the enrichment score was inactive: 1.51.

Consider EPFKVYRIVPE [IRF8_Y110_YF], for which the enrichment score was inactive: 0.829.

For RICRRYCQVLN [IQCF1_Y144_R141C], the enrichment score is inactive: 0.166.

Turning to DPHKIYEFVNS [IRF3_Y107], the enrichment score is inactive: 0.92.

As to KGPGEYVNIEF [IRS1_Y896_S892G], the enrichment score was inactive: 1.23.

Turning to PARLEYFENEK [IRS1_Y46_YF], the enrichment score was inactive: 0.9.

For the molecule KLFIEYPTGSG [IRF2BPL_Y423], the enrichment score was inactive: 1.58.

Regarding NFFDTCIKTCL [IQGAP2_Y1445_Y1445C_YF], the enrichment score is inactive: 2.04.

NYYDTCIKTCL [IQGAP2_Y1445_Y1445C]: the enrichment score is inactive: 1.93.

As for ARLEFYENEKK [IRS1_Y47_YF], the enrichment score was inactive: 0.927.
